# PubChem BioAssay AID588591 (National Center for Advancing Translational Sciences (NCATS), 2011)
# Out of some 390,000 compounds screened, about 4,700 (1.2%) were called active. Inconclusive results, whose numbers are uncertain, are shown with a selection of clear calls. Calls come from the whole dose curve; as a rule, active = well fitted inhibition curve with a large enough effect; inconclusive = small, poorly fitted or top-dose-only effect, or another doubt; inactive = no such curve, though single readings can be large or run the other way. Where the call is inconclusive, the potency comes from a doubtful curve fit.
# Target: DNA polymerase eta (Homo sapiens) (UniProt Q9Y253)
# Test: qHTS for Inhibitors of Polymerase Eta
# Conditions: recombinant Pol eta, fluorescent DNA replication assay; series mostly up to 114 µM
# How it was run: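 Pol eta at 10 nM preincubated with compounds 15 min at room temperature; reaction started with fluorescent substrate (50 nM final) and read kinetically at 0 and 10 min.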
# Potency is the fitted concentration of half-maximal effect; tags give direction and shape of the fitted curve.
# Chain of UniProt Q9Y253 (Q9Y253 whole entry, looked up): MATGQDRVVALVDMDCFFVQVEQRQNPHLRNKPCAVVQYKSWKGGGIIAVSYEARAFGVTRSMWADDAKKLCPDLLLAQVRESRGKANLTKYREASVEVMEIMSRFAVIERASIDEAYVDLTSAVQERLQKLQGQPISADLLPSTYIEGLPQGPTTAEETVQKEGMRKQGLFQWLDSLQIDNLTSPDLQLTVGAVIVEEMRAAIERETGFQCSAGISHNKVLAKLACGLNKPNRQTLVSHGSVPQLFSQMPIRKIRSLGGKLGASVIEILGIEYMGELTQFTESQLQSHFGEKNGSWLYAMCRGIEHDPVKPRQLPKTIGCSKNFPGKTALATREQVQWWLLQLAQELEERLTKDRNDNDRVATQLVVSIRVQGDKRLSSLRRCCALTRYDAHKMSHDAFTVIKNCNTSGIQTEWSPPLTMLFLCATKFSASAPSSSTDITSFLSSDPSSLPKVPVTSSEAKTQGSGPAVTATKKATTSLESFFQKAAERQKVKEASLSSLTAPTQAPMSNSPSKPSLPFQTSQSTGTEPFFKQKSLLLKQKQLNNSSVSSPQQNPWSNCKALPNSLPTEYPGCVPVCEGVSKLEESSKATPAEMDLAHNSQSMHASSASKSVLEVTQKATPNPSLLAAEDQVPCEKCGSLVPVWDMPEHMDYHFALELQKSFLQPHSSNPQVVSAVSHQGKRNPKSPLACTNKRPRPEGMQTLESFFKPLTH
row,SMILES,Potency
1,Clc1nc2c(-c3ccccc3)nnn2c2ccccc12,"inconclusive: 39.8 µM [inhibitor, partial curve]"
2,CC1(C)c2[nH]c3ccccc3c2C[C@H]2C(=O)N(Cc3ccc(F)cc3)C(=O)N21,inactive
3,CC(=O)c1ccc(NC(=S)NC2CCCC(C)C2C)cc1 (configuration not stated),"inconclusive: 89.1 µM [inhibitor, partial curve, poor fit]"
4,CCc1ccc(S(=O)(=O)c2nnn3c2nc(NCc2cccc(OC)c2)c2cc(Cl)ccc23)cc1,inactive
5,Cc1cccc(C)c1NC(=O)C1C2C=CC(C2)C1C(=O)O (configuration not stated),inactive
6,CCN(CC)c1ccc(NC(=O)CN2CCN(CC(=O)Nc3ccccc3F)CC2)cc1,"inconclusive: 89.1 µM [inhibitor, partial curve, poor fit]"
7,Cc1ccccc1N1CC(C(=O)Nc2nnc(SCCC3OCCO3)s2)CC1=O (configuration not stated),active: 20 µM
8,CCOC(=O)N1CCN(C(=O)Cn2ncc3ccccc32)CC1,"inconclusive: 35.5 µM [inhibitor, full curve]"
9,C#Cc1ccc([C@H]2C=C(C(=O)O)O[C@@H](OCCCCO)C2)cc1,active: 20 µM
10,COc1cccc(/C=N/NC(=O)C[n+]2ccccc2)c1O,inactive
11,CCOC(=O)C1(CC2CC2)CCN(Cc2cnc(-c3ccc(OC)cc3)nc2)CC1,"inconclusive: 79.4 µM [inhibitor, partial curve, poor fit]"
12,NNC(=O)CCC(=O)Nc1ccccc1,inactive
13,N#CCCn1cc(C(=O)Nc2ccc(C(=O)O)cc2)c(-c2cccc(Br)c2)n1,"inconclusive: 28.2 µM [inhibitor, partial curve, poor fit]"
14,COc1cc2c(C#N)c(N3CCCCC3)nc(N)c2c(N)n1,"inconclusive: 35.5 µM [inhibitor, partial curve]"
15,COc1cc2c(cc1OC)C(C)N(CCc1ccc(Cl)cc1)CC2 (configuration not stated),"inconclusive: 89.1 µM [inhibitor, partial curve, poor fit]"
16,O=C(NCc1ccccc1F)C1CC(=O)N(Cc2ccco2)C1 (configuration not stated),inactive
17,CCCn1nc(C(=O)Nc2ccc(S(=O)(=O)Nc3nccs3)cc2)c2ccccc2c1=O,"inconclusive: 15.8 µM [inhibitor, full curve]"
18,O=C(O)c1ccc(N/N=C/c2cc3c(cc2[N+](=O)[O-])OCO3)cc1,"inconclusive: 56.2 µM [inhibitor, partial curve]"
19,C/C(CC(=O)Nc1ccc2ccccc2c1)=N\NC(=O)c1ccc(O)c(O)c1,"inconclusive: 20 µM [inhibitor, full curve, poor fit]"
20,CCOc1ccccc1Oc1coc2cc(OCC(=O)O)ccc2c1=O,active: 28.2 µM
21,COc1cccc(/C=N/NC(=O)c2cc(-c3cccn3C)n[nH]2)c1,"inconclusive: 35.5 µM [inhibitor, partial curve, poor fit]"
22,CCc1cc2c(SCc3ccc(C(=O)OC)o3)ncnc2s1,inactive
23,CCc1ccccc1NC(=O)Cc1cn(C)c2ccccc12,"inconclusive: 100 µM [inhibitor, partial curve, poor fit]"
24,CCN(CC(=O)Nc1cccc(OC)c1)CC(=O)Nc1cccc2ccccc12,"inconclusive: 25.1 µM [inhibitor, partial curve, poor fit]"

row,SMILES,Potency
1,Nc1nonc1-c1nc2ccccc2n1CC(=O)N/N=C/c1ccc(-c2cccc(C(=O)O)c2)o1,active: 17.8 µM
2,CN1C(=O)/C(=N/OC(=O)c2ccccc2)c2ccccc21,"inconclusive: 20 µM [inhibitor, partial curve, poor fit]"
3,Cc1ccc(O)c(/C=N/NC(=O)COc2ccc3c(C)cc(=O)oc3c2)c1,active: 50.1 µM
4,COc1cc(NS(=O)(=O)c2ccc(NC(=S)NC(=O)/C=C/c3ccc(OC)c(OC)c3)cc2)ncn1,active: 31.6 µM
5,CC1CCCC(C)N1C(=O)COC(=O)c1ccccc1O (configuration not stated),inactive
6,c1ccc(-c2cc(CSc3nc4ccccc4[nH]3)on2)cc1,"inconclusive: 44.7 µM [inhibitor, partial curve, poor fit]"
7,CCCCOC(=O)c1ccc(NC(=O)Cc2coc3c(C)c(C)ccc23)cc1,inactive
8,COC(=O)c1ccccc1NC(=O)C1(c2cccs2)CCOCC1,"inconclusive: 89.1 µM [inhibitor, partial curve, poor fit]"
9,Cc1[nH]c2ccccc2c1/C=N/NC(=O)CNC(=O)c1ccc2c(c1)OCO2,"inconclusive: 79.4 µM [inhibitor, partial curve]"
10,Cc1ccc(S(=O)(=O)CCC(=O)Nc2sccc2C(N)=O)cc1,active: 28.2 µM
11,CC(=O)CSc1ncnc2sc3c(c12)CCC3,inactive
12,Cc1c(Cl)cccc1NC(=O)CSc1ncc(S(=O)(=O)c2ccc(C(C)C)cc2)c(=O)[nH]1,inactive
13,COc1ccc(NC(=S)Nc2ccc3nc(C)c(C)nc3c2)cc1,inactive
14,O=C1C2C3C=CC(C3)C2C(=O)N1c1cccc2cccnc12 (configuration not stated),"inconclusive: 39.8 µM [inhibitor, partial curve, poor fit]"
15,Cc1ccc(-n2nc3ccc(NC(=O)/C=C/c4ccco4)cc3n2)cc1,"inconclusive: 22.4 µM [inhibitor, full curve, poor fit]"
16,CCc1ccc(CN(C)C(=O)c2cc(COc3c(F)cccc3F)on2)cc1,"inconclusive: 100 µM [inhibitor, partial curve, poor fit]"
17,Oc1c(C(c2ccc(Cl)cc2)N2CCCC2)sc2nc(-c3ccco3)nn12 (configuration not stated),"inconclusive: 100 µM [inhibitor, single point]"
18,C#Cc1cccc(NC(=O)c2ccc3c(c2)C(=O)N(Cc2cccnc2)C3=O)c1,"inconclusive: 14.1 µM [inhibitor, partial curve, poor fit]"
19,Cc1ccc(C)n1-c1ccc(C(=O)NCC2CCCO2)cc1 (configuration not stated),"inconclusive: 28.2 µM [inhibitor, partial curve, poor fit]"
20,O=C(COC(=O)c1ccc[n+]([O-])c1)Nc1ccc(Cl)cc1[N+](=O)[O-],inactive
21,O=C(O)COc1ccc2c(c1)O/C(=C\c1cccs1)C2=O,"inconclusive: 22.4 µM [inhibitor, partial curve, poor fit]"
22,CC(=O)Nc1n[nH]c(=S)s1,"inconclusive: 100 µM [inhibitor, single point]"
23,COc1ccc(/C=N/NC(=O)C(O)(c2ccccc2)c2ccccc2)cc1OC,inactive
24,CCOCc1c(C(=O)N2CCN(CCOc3ccc(Cl)cc3)CC2)oc2ccccc12,"inconclusive: 79.4 µM [inhibitor, partial curve, poor fit]"

row,SMILES,Potency
1,CCN(CC)S(=O)(=O)c1ccc(C(=O)OCC(=O)Nc2sc3c(c2C#N)CCCCC3)cc1,"inconclusive: 22.4 µM [inhibitor, partial curve, poor fit]"
2,Cc1cc(/C=C2\SC(=S)NC2=O)c(C)n1-c1ccccc1,active: 50.1 µM
3,Cc1ccc(C(=O)c2cn(Cc3cccc(F)c3)c3nc(C)ccc3c2=O)cc1,inactive
4,Cc1cccc(-c2nc(N3CCN(c4ccc(F)cc4)CC3)c3ccccc3n2)c1,"inconclusive: 89.1 µM [inhibitor, partial curve, poor fit]"
5,O=C(O)c1ccccc1C1=Nc2ccc(O)cc2Oc2cc(O)ccc21,"inconclusive: 20 µM [inhibitor, full curve, poor fit]"
6,Cc1cc(C(F)(F)F)nc(SCc2ccc(C(=O)O)o2)n1,active: 8.91 µM
7,Cc1ccc(C(=O)Nc2nnc(S(=O)(=O)N3CCCc4ccccc43)s2)cc1,active: 89.1 µM
8,CC1=C/C(=N\OS(=O)(=O)c2ccccc2)C=CC1=O,"inconclusive: 28.2 µM [inhibitor, single point]"
9,O=C(Cc1cccs1)Nc1ccc(N2CCOCC2)cc1,active: 25.1 µM
10,Oc1ccccc1C=NN=Cc1c(O)ccc2ccccc12,inactive
11,Cc1cc(C)cc(NC(=O)CCc2nc3sc4c(c3c(=O)[nH]2)CCCC4)c1,active: 20 µM
12,O=C(Nc1ccc(OC(F)(F)F)cc1)C(NS(=O)(=O)c1cccc2nsnc12)c1ccccc1 (configuration not stated),inactive
13,O=C(N/N=C/c1ccc([N+](=O)[O-])o1)c1cn2ccc3ccccc3c2n1,"inconclusive: 8.91 µM [inhibitor, partial curve, poor fit]"
14,CN(C)c1cccc(C(=O)OCC(=O)Nc2nccs2)c1,"inconclusive: 14.1 µM [inhibitor, full curve, poor fit]"
15,Cc1cc(C)cc(NC(=O)CSc2nc3c(cnn3-c3ccc(F)cc3)c(=O)[nH]2)c1,inactive
16,COc1ccc(-c2nc3c4ccccc4n(CC(=O)Nc4ccc(C(C)=O)cc4)c(=O)n3n2)cc1,inactive
17,COc1cc(C(=O)OCC(=O)N2CCC(Cc3ccccc3)CC2)cc(OC)c1OC,inactive
18,CCCSc1nsc(SCCC)c1C#N,inactive
19,COc1ccccc1/C=C/C(=O)OCC(=O)Nc1nnc(-c2ccccc2)o1,"inconclusive: 11.2 µM [inhibitor, partial curve, poor fit]"
20,C=CC(COCc1ccccc1)N(CC(=O)OC)S(=O)(=O)c1cc(Br)ccc1OC (configuration not stated),"inconclusive: 89.1 µM [inhibitor, partial curve, poor fit]"
21,COc1ccc(CN2[C@@H](CC(C)=O)c3ccc(/C=C/C(C)=O)cc3S2(=O)=O)cc1,"inconclusive: 50.1 µM [inhibitor, partial curve, poor fit]"
22,CCSc1nnc(NC(=O)C2CCCCC2)s1,inactive
23,COc1ccc(Sc2ccccc2CN(C)C)cc1OC,inactive
24,Cc1ccc(Cn2cccc2/C=C2/C(=N)N3C=CSC3=NC2=O)cc1,active: 70.8 µM
